# Test results published in the supplement of paper PMC8728848.
# Some of the results follow.
# Tests used:
# Assay in all cases: glycan array binding signal (z-score within array); higher = stronger binding
# Settings in all cases: glycan notation: IUPAC condensed, linker removed
# [1] = molecular target: GlcNAc(b1-3)Gal(b1-3)GalNAc
# Outline: (§1)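 Glycan array data came from 3228 arrays in the Consortium for Functional Glycomics database, and only arrays with an available protein sequence were kept. Glycan names were put into IUPAC-condensed notation, and columns mapping to the same glycan were averaged. The binding signal is a within-array Z-score, averaged across arrays of one protein sequence run at different concentrations or buffers and across linkers. A negative Z-score can be read as non-binding.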
# GlcNAc(b1-3)Gal(b1-4)Glc = molecular target: GlcNAc(b1-3)Gal(b1-4)Glc
# Outline: as §1
# [2] = molecular target: GlcNAc(b1-3)Gal(b1-4)GlcNAc
# Outline: as §1
# [3] = molecular target: GlcNAc(b1-3)Gal(b1-4)GlcNAc(b1-2)Man(a1-3)[GlcNAc(b1-3)Gal(b1-4)GlcNAc(b1-2)Man(a1-6)]Man(b1-4)GlcNAc(b1-4)GlcNAc
# Outline: as §1
# [4] = molecular target: GlcNAc(b1-3)Gal(b1-4)GlcNAc(b1-2)Man(a1-3)[GlcNAc(b1-3)Gal(b1-4)GlcNAc(b1-2)Man(a1-6)]Man(b1-4)GlcNAc(b1-4)[Fuc(a1-6)]GlcNAc
# Outline: as §1
# [5] = molecular target: GlcNAc(b1-3)Gal(b1-4)GlcNAc(b1-2)[GlcNAc(b1-3)Gal(b1-4)GlcNAc(b1-6)]Man(a1-6)[GlcNAc(b1-3)Gal(b1-4)GlcNAc(b1-2)Man(a1-3)]Man(b1-4)GlcNAc(b1-4)GlcNAc
# Outline: as §1
# [6] = molecular target: GlcNAc(b1-3)Gal(b1-4)GlcNAc(b1-3)Gal(b1-4)GlcNAc
# Outline: as §1
# [7] = molecular target: GlcNAc(b1-3)Gal(b1-4)GlcNAc(b1-3)Gal(b1-4)GlcNAc(b1-2)Man(a1-3)[GlcNAc(b1-3)Gal(b1-4)GlcNAc(b1-3)Gal(b1-4)GlcNAc(b1-2)Man(a1-6)]Man(b1-4)GlcNAc(b1-4)GlcNAc
# Outline: as §1
# [8] = molecular target: GlcNAc(b1-3)Gal(b1-4)GlcNAc(b1-3)Gal(b1-4)GlcNAc(b1-2)Man(a1-3)[GlcNAc(b1-3)Gal(b1-4)GlcNAc(b1-3)Gal(b1-4)GlcNAc(b1-2)Man(a1-6)]Man(b1-4)GlcNAc(b1-4)[Fuc(a1-6)]GlcNAc
# Outline: as §1
# [9] = molecular target: GlcNAc(b1-3)Gal(b1-4)GlcNAc(b1-3)Gal(b1-4)GlcNAc(b1-2)[GlcNAc(b1-3)Gal(b1-4)GlcNAc(b1-3)Gal(b1-4)GlcNAc(b1-6)]Man(a1-6)[GlcNAc(b1-3)Gal(b1-4)GlcNAc(b1-3)Gal(b1-4)GlcNAc(b1-2)Man(a1-3)]Man(b1-4)GlcNAc(b1-4)[Fuc(a1-6)]GlcNAc
# Outline: as §1
# [10] = molecular target: GlcNAc(b1-3)Gal(b1-4)GlcNAc(b1-3)Gal(b1-4)GlcNAc(b1-3)Gal(b1-4)GlcNAc(b1-2)Man(a1-3)[GlcNAc(b1-3)Gal(b1-4)GlcNAc(b1-3)Gal(b1-4)GlcNAc(b1-3)Gal(b1-4)GlcNAc(b1-2)Man(a1-6)]Man(b1-4)GlcNAc(b1-4)GlcNAc
# Outline: as §1
# [11] = molecular target: GlcNAc(b1-3)Gal(b1-4)GlcNAc(b1-3)Gal(b1-4)GlcNAc(b1-3)Gal(b1-4)GlcNAc(b1-2)Man(a1-3)[GlcNAc(b1-3)Gal(b1-4)GlcNAc(b1-3)Gal(b1-4)GlcNAc(b1-3)Gal(b1-4)GlcNAc(b1-2)Man(a1-6)]Man(b1-4)GlcNAc(b1-4)[Fuc(a1-6)]GlcNAc
# Outline: as §1
# [12] = molecular target: GlcNAc(b1-3)Gal(b1-4)GlcNAc(b1-3)Gal(b1-4)GlcNAc(b1-3)Gal(b1-4)GlcNAc(b1-2)[GlcNAc(b1-3)Gal(b1-4)GlcNAc(b1-3)Gal(b1-4)GlcNAc(b1-3)Gal(b1-4)GlcNAc(b1-6)]Man(a1-6)[GlcNAc(b1-3)Gal(b1-4)GlcNAc(b1-3)Gal(b1-4)GlcNAc(b1-3)Gal(b1-4)GlcNAc(b1-2)Man(a1-3)]Man(b1-4)GlcNAc(b1-4)[Fuc(a1-6)]GlcNAc
# Outline: as §1
# [13] = molecular target: GlcNAc(b1-3)Gal(b1-4)GlcNAc(b1-3)Gal(b1-4)GlcNAc(b1-3)Gal(b1-4)GlcNAc(b1-3)Gal(b1-4)GlcNAc(b1-2)Man(a1-3)[GlcNAc(b1-3)Gal(b1-4)GlcNAc(b1-3)Gal(b1-4)GlcNAc(b1-3)Gal(b1-4)GlcNAc(b1-3)Gal(b1-4)GlcNAc(b1-2)Man(a1-6)]Man(b1-4)GlcNAc(b1-4)GlcNAc
# Outline: as §1
# [14] = molecular target: GlcNAc(b1-3)Gal(b1-4)GlcNAc(b1-3)Gal(b1-4)GlcNAc(b1-3)Gal(b1-4)GlcNAc(b1-3)Gal(b1-4)GlcNAc(b1-2)Man(a1-3)[GlcNAc(b1-3)Gal(b1-4)GlcNAc(b1-3)Gal(b1-4)GlcNAc(b1-3)Gal(b1-4)GlcNAc(b1-3)Gal(b1-4)GlcNAc(b1-2)Man(a1-6)]Man(b1-4)GlcNAc(b1-4)[Fuc(a1-6)]GlcNAc
# Outline: as §1
# [15] = molecular target: GlcNAc(b1-3)Gal(b1-4)GlcNAc(b1-3)Gal(b1-4)GlcNAc(b1-3)Gal(b1-4)GlcNAc(b1-3)Gal(b1-4)GlcNAc(b1-2)[GlcNAc(b1-3)Gal(b1-4)GlcNAc(b1-3)Gal(b1-4)GlcNAc(b1-3)Gal(b1-4)GlcNAc(b1-3)Gal(b1-4)GlcNAc(b1-6)]Man(a1-6)[GlcNAc(b1-3)Gal(b1-4)GlcNAc(b1-3)Gal(b1-4)GlcNAc(b1-3)Gal(b1-4)GlcNAc(b1-3)Gal(b1-4)GlcNAc(b1-2)Man(a1-3)]Man(b1-4)GlcNAc(b1-4)[Fuc(a1-6)]GlcNAc
# Outline: as §1
# [16] = molecular target: GlcNAc(b1-3)Gal(b1-4)GlcNAc(b1-3)Gal(b1-4)GlcNAc(b1-3)GalNAc
# Outline: as §1
# [17] = molecular target: GlcNAc(b1-3)Gal(b1-4)GlcNAc(b1-3)GalNAc
# Outline: as §1
# [18] = molecular target: GlcNAc(b1-3)Gal(b1-4)GlcNAc(b1-3)[GlcNAc(b1-3)Gal(b1-4)GlcNAc(b1-3)]GalNAc
# Outline: as §1
# [19] = molecular target: GlcNAc(b1-3)Gal(b1-4)GlcNAc(b1-6)[Gal(b1-3)]GalNAc
# Outline: as §1
# [20] = molecular target: GlcNAc(b1-3)Gal(b1-4)GlcNAc(b1-6)[GlcNAc(b1-3)Gal(b1-3)]GalNAc
# Outline: as §1
# [21] = molecular target: GlcNAc(b1-3)Gal(b1-4)GlcNAc(b1-6)[GlcNAc(b1-3)]Gal(b1-4)GlcNAc
# Outline: as §1
# GlcNAc(b1-3)GalNAc = molecular target: GlcNAc(b1-3)GalNAc
# Outline: as §1
# GlcNAc(b1-3)Man = molecular target: GlcNAc(b1-3)Man
# Outline: as §1
# [22] = molecular target: GlcNAc(b1-3)[GlcNAc(b1-4)][GlcNAc(b1-6)]GlcNAc
# Outline: as §1
# [23] = molecular target: GlcNAc(b1-3)[GlcNAc(b1-6)]Gal(b1-4)GlcNAc
# Outline: as §1
# [24] = molecular target: GlcNAc(b1-3)[GlcNAc(b1-6)]GalNAc
# Outline: as §1
# [25] = molecular target: GlcNAc(b1-4)Gal(b1-4)GlcNAc
# Outline: as §1
# GlcNAc(b1-4)GlcNAc = molecular target: GlcNAc(b1-4)GlcNAc
# Outline: as §1
# [26] = molecular target: GlcNAc(b1-4)GlcNAc(b1-4)GlcNAc
# Outline: as §1
# [27] = molecular target: GlcNAc(b1-4)GlcNAc(b1-4)GlcNAc(b1-4)GlcNAc(b1-4)GlcNAc
# Outline: as §1
# [28] = molecular target: GlcNAc(b1-4)GlcNAc(b1-4)GlcNAc(b1-4)GlcNAc(b1-4)GlcNAc(b1-4)GlcNAc
# Outline: as §1
# [29] = molecular target: GlcNAc(b1-4)[GlcNAc(b1-6)]GalNAc
# Outline: as §1
# [30] = molecular target: GlcNAc(b1-6)Gal(b1-4)GlcNAc
# Outline: as §1
# GlcNAc(b1-6)GalNAc = molecular target: GlcNAc(b1-6)GalNAc
# Outline: as §1
# [31] = molecular target: GlcNAc6S(b1-3)Gal(b1-4)GlcNAc
# Outline: as §1
# Kdn(a2-3)Gal(b1-3)GalNAc = molecular target: Kdn(a2-3)Gal(b1-3)GalNAc
# Outline: as §1
# Kdn(a2-3)Gal(b1-3)GlcNAc = molecular target: Kdn(a2-3)Gal(b1-3)GlcNAc
# Outline: as §1
# Kdn(a2-3)Gal(b1-4)Glc = molecular target: Kdn(a2-3)Gal(b1-4)Glc
# Outline: as §1
# Kdn(a2-3)Gal(b1-4)GlcNAc = molecular target: Kdn(a2-3)Gal(b1-4)GlcNAc
# Outline: as §1
# [32] = molecular target: Kdn(a2-3)Gal(b1-4)[Fuc(a1-3)]GlcNAc
# Outline: as §1
# Kdn(a2-6)Gal(b1-4)GlcNAc = molecular target: Kdn(a2-6)Gal(b1-4)GlcNAc
# Outline: as §1
# [33] = molecular target: Man(a1-2)Man(a1-2)Man(a1-3)Man
# Outline: as §1
# [34] = molecular target: Man(a1-2)Man(a1-2)Man(a1-6)[Man(a1-3)]Man
# Outline: as §1
# Man(a1-2)Man(a1-3)Man = molecular target: Man(a1-2)Man(a1-3)Man
# Outline: as §1
binder,measurement,setting,value
APVPVTKLVCDGDTYKCTAYLDFGDGRWVAQWDTNVFHTG [PhoSpL (Pholiota squarrosa)],glycan array binding signal (z-score),[1],-0.211
same,glycan array binding signal (z-score),GlcNAc(b1-3)Gal(b1-4)Glc,-0.305
same,glycan array binding signal (z-score),[2],-0.32
same,glycan array binding signal (z-score),[3],0.18
same,glycan array binding signal (z-score),[4],2.47
same,glycan array binding signal (z-score),[5],-0.099
same,glycan array binding signal (z-score),[6],-0.294
same,glycan array binding signal (z-score),[7],0.126
same,glycan array binding signal (z-score),[8],1.44
same,glycan array binding signal (z-score),[9],0.584
same,glycan array binding signal (z-score),[10],-0.182
same,glycan array binding signal (z-score),[11],0.9
same,glycan array binding signal (z-score),[12],0.229
same,glycan array binding signal (z-score),[13],-0.144
same,glycan array binding signal (z-score),[14],0.617
same,glycan array binding signal (z-score),[15],0.7
same,glycan array binding signal (z-score),[16],0.187
same,glycan array binding signal (z-score),[17],0.385
same,glycan array binding signal (z-score),[18],-0.273
same,glycan array binding signal (z-score),[19],0.53
same,glycan array binding signal (z-score),[20],-0.107
same,glycan array binding signal (z-score),[21],-0.337
same,glycan array binding signal (z-score),GlcNAc(b1-3)GalNAc,-0.205
same,glycan array binding signal (z-score),GlcNAc(b1-3)Man,0.405
same,glycan array binding signal (z-score),[22],-0.681
same,glycan array binding signal (z-score),[23],-0.249
same,glycan array binding signal (z-score),[24],-0.392
same,glycan array binding signal (z-score),[25],-0.264
same,glycan array binding signal (z-score),GlcNAc(b1-4)GlcNAc,-0.218
same,glycan array binding signal (z-score),[26],-0.07
same,glycan array binding signal (z-score),[27],0.119
same,glycan array binding signal (z-score),[28],-0.168
same,glycan array binding signal (z-score),[29],-0.295
same,glycan array binding signal (z-score),[30],-0.222
same,glycan array binding signal (z-score),GlcNAc(b1-6)GalNAc,0.176
same,glycan array binding signal (z-score),[31],-0.056
same,glycan array binding signal (z-score),Kdn(a2-3)Gal(b1-3)GalNAc,-0.679
same,glycan array binding signal (z-score),Kdn(a2-3)Gal(b1-3)GlcNAc,0.007
same,glycan array binding signal (z-score),Kdn(a2-3)Gal(b1-4)Glc,-0.2
same,glycan array binding signal (z-score),Kdn(a2-3)Gal(b1-4)GlcNAc,-0.163
same,glycan array binding signal (z-score),[32],-0.393
same,glycan array binding signal (z-score),Kdn(a2-6)Gal(b1-4)GlcNAc,-0.023
same,glycan array binding signal (z-score),[33],-0.197
same,glycan array binding signal (z-score),[34],-0.173
same,glycan array binding signal (z-score),Man(a1-2)Man(a1-3)Man,-0.372
